One assay relates to HSkMC. Description: cytotoxicity call (relative viability < 0.9). As to conditions: 10 µM.
The test system of another assay is HepG2. Description: cytotoxicity call (relative viability < 0.9). The following applies: 10 µM.
A further assay deals with S. aureus RN4220. Put plainly: growth inhibition call (relative growth <= 0.2). The following applies: 50 µM.

The list shows a part of the results.

For the molecule `COCC(=O)N1[C@@H]2c3ccc(C4=CCCCC4)c(=O)n3C[C@@H]2[C@@H](CO)[C@@H]1C(=O)N1CCN(C)CC1`, the cytotoxicity call in the assay with HSkMC and with HepG2 was “inactive” each time. Moreover, the growth inhibition call in the assay on S. aureus RN4220 is “inactive”.
`C[C@@H]1CCCCO[C@H](CN(C)C(=O)c2ccccc2)[C@H](C)CN([C@@H](C)CO)C(=O)c2cc(NC(=O)Nc3cccc4ccccc34)ccc2O1`: the cytotoxicity call in the assay with HSkMC and in the assay with HepG2 was “inactive” each time. The growth inhibition call with S. aureus RN4220 was “inactive”.
As for `C[C@@H]1CN([C@H](C)CO)C(=O)c2cc(NC(=O)Nc3ccc(F)cc3)ccc2O[C@@H](C)CCCCO[C@H]1CN(C)C(=O)Nc1ccccc1`, the cytotoxicity call in the assay with HSkMC and in the assay on HepG2 was “inactive” in each case. In addition, the growth inhibition call in the assay with S. aureus RN4220 is “inactive”.
As for `C[C@H]1CN([C@@H](C)CO)C(=O)c2cc(NS(=O)(=O)c3cccs3)ccc2O[C@@H]1CN(C)Cc1ccncc1`, the cytotoxicity call in the assay with HSkMC and with HepG2 was “inactive” in each case. Moreover, the growth inhibition call in the assay with S. aureus RN4220 was “inactive”.
Take `COc1ccc(S(=O)(=O)N2C[C@H](O)COC[C@@H]3O[C@H](CC(=O)NCCCN4CCOCC4)CC[C@H]32)cc1`: the cytotoxicity call in the assay on HSkMC and in the assay on HepG2 was “inactive” in each case. For the same molecule, the growth inhibition call in the assay with S. aureus RN4220 is “inactive”.
With `C[C@H](CO)N1C[C@H](C)[C@@H](CN(C)Cc2ccc(Cl)c(Cl)c2)OCCCC[C@H](C)Oc2ccc(NC(=O)Nc3cccc4ccccc34)cc2C1=O`, the cytotoxicity call with HSkMC and in the assay on HepG2 was “inactive” in each case. The growth inhibition call in the assay on S. aureus RN4220 is “inactive”.
Consider `CC(C(=O)O)c1ccc(N2Cc3ccccc3C2=O)cc1` (stereo not drawn), for which the cytotoxicity call with HSkMC and in the assay with HepG2 was “inactive” throughout. In addition, in the assay on S. aureus RN4220, the growth inhibition call is “inactive”.
For the molecule `COc1ccc(NC(=O)Nc2ccc3c(c2)C(=O)N([C@@H](C)CO)C[C@H](C)[C@@H](CN(C)S(=O)(=O)c2cccs2)OCCCC[C@H](C)O3)cc1`, the cytotoxicity call in the assay on HSkMC and in the assay with HepG2 was “inactive” each time. In addition, in the assay with S. aureus RN4220, the growth inhibition call is “inactive”.
Take `Cc1cccc(-c2ccc3c(c2)O[C@H](CN(C)Cc2ccc(C(=O)O)cc2)CCN(C(C)C)S3(=O)=O)c1`: the cytotoxicity call with HSkMC and in the assay on HepG2 was “inactive” in each case. Besides, in the assay on S. aureus RN4220, the growth inhibition call is “inactive”.
As to `C[C@@H]1CN([C@@H](C)CO)C(=O)c2cc(NC(=O)Cc3cn(C)c4ccccc34)ccc2O[C@H]1CN(C)Cc1ccc(Cl)c(Cl)c1`, in the assay on HSkMC, the cytotoxicity call was “inactive”. Moreover, the cytotoxicity call in the assay on HepG2 was “active”. Further, the growth inhibition call in the assay on S. aureus RN4220 was “inactive”.
For `CC(C)NC(=O)N(C)C[C@H]1Oc2ccc(NC(=O)C3CCCCC3)cc2CC(=O)N([C@@H](C)CO)C[C@@H]1C`, the cytotoxicity call in the assay with HSkMC and in the assay with HepG2 was “inactive” in each case. Moreover, the growth inhibition call in the assay with S. aureus RN4220 was “inactive”.
Turning to `Cc1noc(C)c1S(=O)(=O)N(C)C[C@H]1OCCCC[C@H](C)Oc2ccc(NS(C)(=O)=O)cc2C(=O)N([C@H](C)CO)C[C@H]1C`, the cytotoxicity call in the assay with HSkMC and with HepG2 was “inactive” throughout. Besides, in the assay with S. aureus RN4220, the growth inhibition call was “inactive”.
In the case of `COCC#Cc1cnc2c(c1)C(=O)N([C@@H](C)CO)C[C@H](C)[C@H](CN(C)S(=O)(=O)c1cccc(OC)c1)O2`, the cytotoxicity call in the assay on HSkMC and in the assay with HepG2 was “inactive” in each case. Moreover, the growth inhibition call with S. aureus RN4220 was “inactive”.
In the case of `COc1ccc2c3c([nH]c2c1)[C@@H](CO)N(C[C@]13CCN(CC1)Cc1cc(ccc1F)F)C(=O)Nc1ccc(cc1)F`, the cytotoxicity call with HSkMC and in the assay on HepG2 was “inactive” throughout. Moreover, the growth inhibition call with S. aureus RN4220 is “inactive”.
With `C[C@@H]1CCCCO[C@H](CN(C)S(C)(=O)=O)[C@@H](C)CN([C@@H](C)CO)C(=O)c2cc(NC(=O)Nc3cccc4ccccc34)ccc2O1`, the cytotoxicity call in the assay on HSkMC and in the assay with HepG2 was “inactive” in each case. In the assay with S. aureus RN4220, the growth inhibition call was “inactive”.
Take `C[C@@H]1CN([C@H](C)CO)C(=O)c2cccc(NC(=O)Nc3cccc4ccccc34)c2O[C@@H]1CN(C)C(=O)Nc1ccccc1`: the cytotoxicity call in the assay on HSkMC and with HepG2 was “inactive” each time. Besides, the growth inhibition call in the assay on S. aureus RN4220 was “inactive”.
Take `COCC#Cc1ccc2c(c1)O[C@H](CN(C)C(=O)C1CCCCC1)[C@H](C)CN([C@H](C)CO)S2(=O)=O`: the cytotoxicity call in the assay with HSkMC and in the assay on HepG2 was “inactive” each time. The growth inhibition call in the assay on S. aureus RN4220 was “inactive”.
With `C[C@@H]1CN([C@@H](C)CO)C(=O)Cc2cc(NC(=O)c3ccncc3)ccc2O[C@@H]1CN(C)Cc1ccc2c(c1)OCO2`, the cytotoxicity call with HSkMC and with HepG2 was “inactive” throughout. For the same molecule, the growth inhibition call with S. aureus RN4220 was “inactive”.
For the molecule `C[C@H]1O[C@@H](O[C@H]2[C@@H](O)[C@@H](O)[C@@H](O[C@H]3CC[C@]4(C)[C@H]5CC=C6[C@H]7CC(C)(C)[C@H]8C[C@]7(C(=O)O8)[C@@H](O)C[C@]6(C)[C@@]5(C)CC[C@H]4C3(C)C)O[C@@H]2CO)[C@@H](O)[C@@H](O[C@H]2OC[C@@H](O)[C@@H](O)[C@@H]2O)[C@@H]1O`, the cytotoxicity call in the assay on HSkMC (human skeletal muscle cells) and in the assay on HepG2 was “inactive” each time. Moreover, the growth inhibition call in the assay on S. aureus RN4220 was “inactive”.
`C[C@H]1CN([C@@H](C)CO)C(=O)c2cc(NC(=O)Nc3ccc(C(F)(F)F)cc3)ccc2O[C@H]1CN(C)C(=O)Nc1ccc(F)cc1`: the cytotoxicity call in the assay with HSkMC and in the assay on HepG2 was “inactive” in each case. In the assay with S. aureus RN4220, the growth inhibition call is “inactive”.
As for `Cc1[nH]c(SCCC(=O)O)nc(=O)c1C`, the cytotoxicity call with HSkMC and in the assay with HepG2 was “inactive” throughout. Further, in the assay with S. aureus RN4220, the growth inhibition call is “inactive”.
`C[C@H](CO)N1C[C@H](C)[C@H](CN(C)Cc2ccc(Cl)c(Cl)c2)OCCCC[C@H](C)Oc2ccc(NC(=O)Nc3ccccc3)cc2C1=O`: the cytotoxicity call in the assay with HSkMC and in the assay with HepG2 was “inactive” in each case. The growth inhibition call in the assay on S. aureus RN4220 was “inactive”.
In the case of `C[C@H](CO)N1C[C@H](C)[C@H](CN(C)Cc2ccc(Oc3ccccc3)cc2)Oc2c(NS(=O)(=O)c3ccc(F)cc3)cccc2C1=O`, the cytotoxicity call in the assay with HSkMC and with HepG2 was “inactive” in each case. Also, the growth inhibition call with S. aureus RN4220 is “inactive”.
Take `C[C@@H]1CCCCO[C@H](CN(C)C(=O)Nc2cccc3ccccc23)[C@H](C)CN([C@@H](C)CO)C(=O)c2cc(NC(=O)CCCN(C)C)ccc2O1`: the cytotoxicity call in the assay with HSkMC and in the assay with HepG2 was “inactive” throughout. In the assay on S. aureus RN4220, the growth inhibition call was “inactive”.
For `Cn1c(=O)c2c(nc(N3CCNCC3)n2CC(=O)c2ccc(Cl)cc2)n(C)c1=O`, the cytotoxicity call in the assay with HSkMC and in the assay on HepG2 was “inactive” each time. Besides, the growth inhibition call in the assay with S. aureus RN4220 was “inactive”.
Regarding `Cc1noc(C)c1NC(=O)N(C)C[C@@H]1Oc2ccc(NC(=O)C3CC3)cc2CC(=O)N([C@H](C)CO)C[C@H]1C`, the cytotoxicity call with HSkMC and with HepG2 was “inactive” each time. The growth inhibition call in the assay with S. aureus RN4220 is “inactive”.

The values above are taken from the antibiotic and cytotoxicity screens of Wong et al. (2023).
